Reference: the supplement of paper PMC10126150
Values marked as one replicate rest on one cluster of the flow cell; about a third of the high ones do not repeat.

System: ATP
Assay: switch fluorescence ratio, 500 uM ATP over buffer (Cy3 cluster intensity, sum of 5 cycles each) (fold (ratio)); higher = stronger signal-on switching upon ATP binding; sequences stand for … in TCGTCGGCAGCGTCAGATGTGTATAAGAGACAGTTTTTTTTTTTTTTTTTTTTTTTTT…TC
Details: aptamer strand: ATP DNA aptamer (quencher-CACCTGGGGGAGTATTGCGGAGGAAGG + anchor), 100 nM annealed; ATP concentration: 500 uM; one replicate
Summary of the method: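 The quencher-labelled ATP aptamer, at 100 nM, was annealed to Cy3-labelled switching-strand clusters on a modified Illumina MiSeq flow-cell. The clusters were imaged in selection buffer, then after 15 min with 500 uM ATP at 22 °C, and this buffer/ATP cycle ran five times with NaOH stripping and re-annealing between runs. Per-cluster fluorescence ratios, summed target-cycle over summed buffer-cycle Cy3 intensity, were averaged per switch-domain sequence. Clusters outside 100-1000 RFU were excluded.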
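Note: ATP exposure 15 min at 22 °C before imaging.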

| Sequence | switch fluorescence ratio |
| --- | --- |
| CTATAGCGG | 1.02 |
| GCATAGTGAC | 1.05 |
| CATGAGCTGG | 1.02 |
| TTTAAGTATC | 0.981 |
| CTTGAGTAGT | 1.04 |
| TACAAAGTGT | 0.998 |
| TTTGGCTGA | 0.984 |
| AGACATGGAT | 1.03 |
| CGGGCCGGTG | 0.996 |
| TCTAAAATAT | 1.01 |
| GAACTTGGTG | 0.999 |
| CGCATGTTAA | 1.1 |
| AATAAGATT | 1 |
| ATTACAAAGC | 0.958 |
| AAAAGCTCAT | 0.986 |
| AGGCCACCT | 1.02 |
| CGCGGGAACC | 1.02 |
| CTTCTTGGTC | 1 |
| TTTGACTCA | 1.01 |
| CGCTGATATC | 1.73 |
| GAGGCCCCCG | 1.04 |
| GCCGTAGTC | 0.986 |
| CGGAGACTCC | 1.21 |

| Sequence | switch fluorescence ratio |
| --- | --- |
| AAATTAGGGT | 0.978 |
| GCTTCAACAG | 1.09 |
| TTCTGTGATT | 4.54 |
| CTCAATGATT | 1 |
| TTAATCGGG | 1.03 |
| TATATATTG | 1.04 |
| TCTTTGTGT | 0.989 |
| GACGCCCTGA | 1.09 |
| TTGTGGAACC | 1.02 |
| TTTACATATA | 1.06 |
| TGTGAGTCTT | 0.979 |
| CGGAGTTACT | 1.37 |
| GACCATTACG | 1.13 |
| TGGCGAACG | 0.978 |
| CATGCCCGTG | 0.988 |
| GGTACCTACC | 1.2 |
| ATAATCGACG | 0.987 |
| TAATGTCGCA | 0.995 |
| CGGTGACTGT | 1.03 |
| ATTTATTCG | 0.935 |
| GGGACGCGA | 1.71 |
| ATGGACTTGA | 1.02 |
| CATAGATTTA | 0.996 |

| Sequence | switch fluorescence ratio |
| --- | --- |
| TCGACCCTAT | 1.09 |
| GTGTATACGC | 1.02 |
| CGAGGTACTT | 1.06 |
| GGGGCGGGTC | 1.03 |
| TGCTGGAA | 1.01 |
| GGTCTGCCGT | 0.92 |
| AGTCCCAGTT | 1.05 |
| CCCCGACATT | 1.85 |
| AGCCTAAGTT | 1.03 |
| AAACTATATT | 1 |
| ACGCGGTGAG | 1.03 |
| GTTTTAGTAC | 1.02 |
| AGTTGTTATG | 1.02 |
| TCGTTCATAG | 1.03 |
| CTCCGTCGCC | 1.34 |
| ATATCTGACT | 0.942 |
| GAGAGTGCCT | 0.975 |
| TTATTCAACT | 1.01 |
| CGGGTCCCGG | 0.939 |
| ACCGATGTT | 1.03 |
| TAAGGAAGGT | 0.988 |
| AAGAGCATGA | 0.948 |
| AAGTGTAAAG | 1 |

| Sequence | switch fluorescence ratio |
| --- | --- |
| TGTAAACCAC | 1.06 |
| AAACTGCGGG | 0.997 |
| GGATCTCTTT | 1.04 |
| TCGTACCGCC | 1.11 |
| AAATGCAAG | 0.977 |
| ATGGGGTATA | 0.981 |
| TTATTTTA | 0.97 |
| CACTGGAGGA | 1 |
| AGTCATATTT | 1.03 |
| CAATTGGACG | 1 |
| TGATAGAGCT | 1.03 |
| GAGTAACAAG | 1.03 |
| TGGGAGATA | 0.996 |
| GCTGTTAATC | 0.964 |
| CCGTTAGACG | 1.09 |
| TGTAATCTAT | 1.04 |
| CGGGTGCGG | 0.991 |
| CCAGGTAGGT | 1.5 |
| TTAGCATAAC | 2.04 |
| AGGCATGGTT | 1.05 |
| TTTGGAACTT | 1.01 |
| GCTGTCCATG | 0.968 |
| TGCTCGTTGC | 1.03 |

| Sequence | switch fluorescence ratio |
| --- | --- |
| GATTGTTCAC | 0.966 |
| CGTATCGGGA | 1.01 |
| ATCAAGTGCA | 1.04 |
| GTCAAAACAG | 1.15 |
| TTGCGCGATA | 3.87 |
| AGAGGTGGGT | 1.02 |
| CAGCCTTACA | 1.09 |
| AGCACACTTG | 0.987 |
| ACACTGGACA | 1.21 |
| AAAATCATCG | 0.991 |
| ACATACTACT | 1.27 |
| GACTATTTTA | 1.01 |
| TAGTTGAAGC | 0.997 |
| CAAGGAAGAA | 1.04 |
| TATCAGTCCC | 1.01 |
| TTTTCTACTC | 0.98 |
| GATAACGCGT | 1.08 |
| GCTGATCGGA | 1.02 |
| TTTGAACAAA | 0.98 |
| GCAGGCGTGC | 1.01 |
| TCGTTCTAGT | 1 |
| CGTACATCGT | 0.961 |
| ATAGATTTTG | 1.01 |

| Sequence | switch fluorescence ratio |
| --- | --- |
| AGATGGTGGA | 0.99 |
| CGATGGTAAT | 1.14 |
| GGCACTTTTG | 0.987 |
| GGGTGCATCT | 0.961 |
| ACTTAGGTAT | 1.05 |
| TTAGTGTTAT | 0.971 |
| AAGGGGCTGG | 1.01 |
| CGTAGCTTCG | 0.982 |
| TGTCCTAGGA | 1.01 |
| ATCCACTTTT | 1.04 |
| TAGACCATA | 1.08 |
| AATTATCGCA | 1.05 |
| CATAGACTTG | 1.01 |
| TCACGTTTCG | 1.01 |
| GTTAGGAGCC | 0.978 |
| ACTTGGCACC | 1.12 |
| AACGTGATAG | 1.28 |
| AGAACCGATG | 1.11 |
| CAGGCATCGT | 0.984 |
| TGATGGAA | 0.948 |
| TTGATGACAG | 1.05 |
| GCCTGTGATC | 1.02 |
| TTAAAAACGC | 1.03 |

| Sequence | switch fluorescence ratio |
| --- | --- |
| GCCAGGCC | 1.01 |
| GCTGCTGGTG | 1.1 |
| AAATTCGCCG | 1.11 |
| ATTTGAAAGC | 1.05 |
| CCACACGG | 1.11 |
| TGGAAAAGCA | 1.05 |
| CATGAGGAGG | 0.997 |
| GTCGGCCAAC | 1.03 |
| TTACTGTTCG | 1.04 |
| TCTAATTCCC | 0.97 |
| CGTAGGTCAG | 0.996 |
| CATATCTATG | 0.994 |
| AGGCACTAAG | 1.01 |
| TTCGATATGA | 1.01 |
| AGTGTGTCGT | 1.03 |
| TATGGAGTAA | 1.03 |
| AGCGAAGGGC | 1.02 |
| ATGCAAAGG | 0.982 |
| ACGTGTCCAG | 0.98 |
| CGTTCCACTC | 1.04 |
